Reference: PMC4336329 (PLoS ONE, 2015)
About 14,000 (4.5%) of roughly 310,000 compounds showed an effect of 50% or more. Effects have a minus sign here. The list shows a part of the results.

target: human ether-à-go-go-related gene (hERG) potassium channel (human, UniProt Q12809); assay: primary screen, population patch clamp on CHO cells stably expressing hERG
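Also: peak tail current of the secondary pulse compared with the same well before compound.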

human ether-à-go-go-related gene (hERG) potassium channel, sequence (Q12809 whole entry, looked up): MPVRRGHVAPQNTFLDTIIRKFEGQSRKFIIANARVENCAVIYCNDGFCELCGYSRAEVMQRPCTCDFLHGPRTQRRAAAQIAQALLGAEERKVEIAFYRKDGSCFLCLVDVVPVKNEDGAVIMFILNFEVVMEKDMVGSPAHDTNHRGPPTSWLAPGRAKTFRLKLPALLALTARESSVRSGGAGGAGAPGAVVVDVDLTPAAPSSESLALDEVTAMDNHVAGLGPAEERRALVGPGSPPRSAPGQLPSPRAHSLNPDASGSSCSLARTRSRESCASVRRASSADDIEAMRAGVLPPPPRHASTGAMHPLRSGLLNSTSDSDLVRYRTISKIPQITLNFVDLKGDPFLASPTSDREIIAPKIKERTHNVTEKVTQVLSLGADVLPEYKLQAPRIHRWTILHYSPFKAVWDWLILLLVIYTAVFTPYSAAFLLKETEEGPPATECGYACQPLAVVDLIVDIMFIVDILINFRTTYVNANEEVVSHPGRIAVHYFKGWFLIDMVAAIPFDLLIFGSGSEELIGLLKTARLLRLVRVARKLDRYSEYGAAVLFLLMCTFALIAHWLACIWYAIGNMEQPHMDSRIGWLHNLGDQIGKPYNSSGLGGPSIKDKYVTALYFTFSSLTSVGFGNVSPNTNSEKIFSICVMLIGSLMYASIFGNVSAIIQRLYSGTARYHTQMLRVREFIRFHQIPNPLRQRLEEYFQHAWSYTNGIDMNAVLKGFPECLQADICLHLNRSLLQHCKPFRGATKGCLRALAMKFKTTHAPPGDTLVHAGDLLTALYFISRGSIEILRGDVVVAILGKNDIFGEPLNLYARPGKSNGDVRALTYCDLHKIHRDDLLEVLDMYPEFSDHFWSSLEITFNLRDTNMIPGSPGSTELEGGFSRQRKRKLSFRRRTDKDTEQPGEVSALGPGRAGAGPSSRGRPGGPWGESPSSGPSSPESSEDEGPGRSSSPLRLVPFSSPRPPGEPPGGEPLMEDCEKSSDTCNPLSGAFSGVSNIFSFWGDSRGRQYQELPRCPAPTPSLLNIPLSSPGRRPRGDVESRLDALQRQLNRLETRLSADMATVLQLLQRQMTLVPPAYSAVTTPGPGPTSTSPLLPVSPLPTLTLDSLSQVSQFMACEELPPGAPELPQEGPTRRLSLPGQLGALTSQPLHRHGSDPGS

Going from `NC(=S)N=Nc1c(O)[nH]c2ccccc12` to `O=C(NC(=S)N1CCc2ccccc21)c1ccc(Br)o1`, the “hERG current change (%, negative = inhibition) at 10uM” value rises from 14.7% to 21%.

First: COC(=O)C1=C(c2ccc(F)cc2F)C[C@@H]2CC[C@H]1N2C(=O)NCC1CC1
Second: COc1ccccc1N1CCN(C(=O)C2CCC(CNS(=O)(=O)c3ccc(NC(C)=O)cc3)CC2)CC1 (centres unmarked)
The “hERG current change (%, negative = inhibition) at 10uM” value of the first is higher: 5.78% for the first, -29% for the second.

Compared with `CC1CC(C)CN(C(=O)C(C)N(C)CC(=O)Nc2ccc(Cl)cc2)C1.O=C(O)C(=O)O` (centres unmarked), `O=C(CNC(=O)Cc1ccc(Cl)cc1)NCC(=O)N1CCCCC1` is higher in “hERG current change (%, negative = inhibition) at 10uM” value: -24% for the first, 17.9% for the second.

First: CC1CCCCN1CCCNC(=O)c1nn(C)c2c1CSc1ccccc1-2 (centres unmarked)
Second: CCCN1CCN(CCCNC(=O)c2ccc(CS(=O)c3ccccc3C)o2)CC1 (centres unmarked)
The “hERG current change (%, negative = inhibition) at 10uM” value of the first is lower: -67.1% for the first, 2.01% for the second.

Going from `CCS(=O)(=O)N1CCCC(C(=O)NCCc2ccc(OC)c(OC)c2)C1` (centres unmarked) to `COc1cc(/C=N/NC(=O)c2cccc(S(=O)(=O)N3CCCC3)c2)cc(OC)c1O`, the “hERG current change (%, negative = inhibition) at 10uM” value falls from 13.1% to 12.1%.

First: COc1ccc(-c2nc(NC(=O)c3ccccc3)sc2-c2ccc([N+](=O)[O-])cc2)cc1
Second: Cc1ccc(C(=O)Nc2ccc(C(=O)N/N=C/c3ccccn3)cc2)cc1
The “hERG current change (%, negative = inhibition) at 10uM” value of the first is higher: -1.45% for the first, -2.88% for the second.

Going from `CN(C)CCCNc1nc2sc3c(c2c(=O)n1CCc1ccccc1)CCCCC3` to `O=C(CCCCCN1C(=O)CCC1=O)NCc1ccccc1`, the “hERG current change (%, negative = inhibition) at 10uM” value rises from -28% to 6.93%.

First: CCC(C)NC(=O)c1ccccc1NC(=O)c1ccccc1N(C)S(C)(=O)=O (centres unmarked)
Second: CCN(CC)C(=O)c1ccc(NC(=O)Nc2ccccc2F)cc1
The “hERG current change (%, negative = inhibition) at 10uM” value of the first is higher: 0.0444% for the first, -3.74% for the second.

First: CC1CC(C)(C)NC(=S)N1CC(=O)N1CCN(Cc2ccccc2)CC1 (centres unmarked)
Second: COc1cc(C(=O)N2CCN(CCCc3ccccc3)CC2)cc(OC)c1OC
The “hERG current change (%, negative = inhibition) at 10uM” value of the first is higher: 12.4% for the first, -9.98% for the second.

Going from `NC(=O)c1ccc(-c2nnn(CC(=O)N(C3CCCC3)C3CCS(=O)(=O)C3)n2)cc1` (centres unmarked) to `O=C(Cn1nnc(-c2ccccc2F)n1)Nc1ccc(C(=O)N2CCOCC2)cc1`, the “hERG current change (%, negative = inhibition) at 10uM” value falls from 4.72% to -12.7%.

Compared with `Cc1ccc(OCC(O)CN2CCN(CC(O)COC(C)C)CC2)c(C(C)(C)C)c1` (centres unmarked), `Cn1c(CCN2CCN(c3ccccn3)CC2)nc2cc(NC(=O)COc3ccccc3)ccc21` is lower in “hERG current change (%, negative = inhibition) at 10uM” value: -65.2% for the first, -72.5% for the second.

Going from `CCOC(=O)N1CCN(S(=O)(=O)c2cn(C)c(=O)n(C)c2=O)CC1` to `CCOC(=O)N1CCN(c2c(F)cc3[nH]c(=S)[nH]c3c2Br)CC1`, the “hERG current change (%, negative = inhibition) at 10uM” value falls from 2.66% to -10.5%.

Going from `O=C(NC(=S)NC1CCS(=O)(=O)C1)c1cccc([N+](=O)[O-])c1` (centres unmarked) to `O=S(=O)(Nc1ccc(Cl)cc1)c1ccc(N2CCOCC2)c(NC(=S)NC2CC2)c1`, the “hERG current change (%, negative = inhibition) at 10uM” value rises from 11.4% to 37.5%.

Going from `Cc1c(C(N)=O)c(-c2ccccc2)nn1-c1ccccc1` to `COc1ccccc1NNC(=O)c1cc(C(C)(C)C)nn1Cc1ccccc1`, the “hERG current change (%, negative = inhibition) at 10uM” value rises from -10.9% to -9.89%.

First: CC(C)(C)CC(C)(C)NC(=O)c1ccccc1
Second: CC(C)C(=O)Nc1c2c(nn1-c1ccccc1)CSC2
The “hERG current change (%, negative = inhibition) at 10uM” value of the first is lower: 1.34% for the first, 8.39% for the second.

First: CCCc1cc(=O)[nH]c(SCC(=O)N(C)Cc2ccccc2)n1
Second: Cc1cc(OC2CCCCC2)nc(NCc2ccccc2)n1
The “hERG current change (%, negative = inhibition) at 10uM” value of the first is lower: -1.55% for the first, 1.82% for the second.

Going from `Cc1nn(CC(=O)Nc2ccc3c(c2)nc(CCN2CCCCC2)n3C)c(=O)c2ccccc12` to `O=C(Cn1nc(C(=O)O)c2ccccc2c1=O)Nc1cc(C(F)(F)F)ccc1-n1cncn1`, the “hERG current change (%, negative = inhibition) at 10uM” value rises from -8.83% to 1.03%.

Going from `CCOC(=O)c1c(NC(=O)COC(=O)Cn2c(C(F)(F)F)nc3ccccc32)sc(C)c1C` to `CCOC(=O)c1[nH]c(C)c(C(=O)OCC(=O)NCc2ccc(OC)c(OC)c2)c1C`, the “hERG current change (%, negative = inhibition) at 10uM” value falls from 10.7% to 6.38%.

First: C=C(C)CNC(=S)N1CCNC(=O)C1CC(=O)OC (centres unmarked)
Second: COC(=O)c1cc(OC)c(OC)cc1NC(=O)C1CCCO1 (centres unmarked)
The “hERG current change (%, negative = inhibition) at 10uM” value of the first is higher: 16.1% for the first, -7.89% for the second.

First: O=C(COC(=O)c1ncc(Cl)c(Cl)c1Cl)NC1CCCCCC1
Second: CCN(CC(=O)NCc1ccc(F)cc1)CC(=O)NC1CCCC1
The “hERG current change (%, negative = inhibition) at 10uM” value of the first is higher: 19% for the first, -0.0564% for the second.

Going from `c1ccc(-n2ccnc2)cc1` to `CCc1nc2c(c(SC)nn2-c2ccccc2)c(N)c1C(=O)OC`, the “hERG current change (%, negative = inhibition) at 10uM” value falls from 12.3% to 7.48%.

Going from `CCCc1n[nH]c2c1/C(=N\O)CCC2` to `CCCn1c(SC(C)C(=O)NCC2CCCO2)nc2cc(Cl)ccc2c1=O` (centres unmarked), the “hERG current change (%, negative = inhibition) at 10uM” value falls from 22.3% to 1.08%.

Compared with `O=C(OCC(=O)N1CCc2ccccc21)c1n[nH]c(=O)c2ccccc12`, `S=c1[nH]nc(-c2cc(-c3ccsc3)n[nH]2)n1-c1cccc2ccccc12` is lower in “hERG current change (%, negative = inhibition) at 10uM” value: 26.5% for the first, -12.6% for the second.

First: Cc1cccc(NC(=S)N2CCC(c3nc4ccccc4o3)CC2)c1
Second: CCC1CN(C(=O)N2CCC(C(=O)NCc3ccc(C)o3)CC2)c2ccccc2O1 (centres unmarked)
The “hERG current change (%, negative = inhibition) at 10uM” value of the first is lower: -21.9% for the first, -3.13% for the second.

Compared with `C/C(=N\NS(=O)(=O)c1ccccc1)c1cccc(NC(=O)c2cccc(Cl)c2)c1`, `O=C(Cc1ccccc1)Nc1ccc(NC(=S)NC(=O)c2ccccc2)cc1` is higher in “hERG current change (%, negative = inhibition) at 10uM” value: -6.56% for the first, 9.38% for the second.

Compared with `Cc1ccc(S(=O)(=O)N2CCCC2C(=O)Nc2nccs2)cc1` (centres unmarked), `O=C(Cc1cccs1)Nc1ccc(S(=O)(=O)N2CCCCC2)cc1` is lower in “hERG current change (%, negative = inhibition) at 10uM” value: 9.86% for the first, 5.37% for the second.

First: COc1ccc(CNc2ncc(-c3cccc([N+](=O)[O-])c3)n2C)c(OC)c1OC.O=C(O)C(=O)O
Second: COc1ccc(-c2cc(C(=O)Nc3cc(OC)c(OC)c(OC)c3)no2)cc1
The “hERG current change (%, negative = inhibition) at 10uM” value of the first is lower: -47.5% for the first, 13.5% for the second.

First: Cc1cc(C)nc(NC(=O)Nc2ccccc2C(F)(F)F)n1
Second: COc1ccccc1NC(=S)NCCSc1ccc(C)cc1
The “hERG current change (%, negative = inhibition) at 10uM” value of the first is higher: 1.21% for the first, -39.2% for the second.

Going from `C[C@@H]1CCC[C@]2(O[C@@H](CCO)C[C@H](O)[C@H]2O)O1` to `CC1CCCCC1NC(=O)C1CCN(S(=O)(=O)N2CCC3(CC2)OCCO3)CC1` (centres unmarked), the “hERG current change (%, negative = inhibition) at 10uM” value rises from 9.75% to 11.6%.

Compared with `CCCC(=O)OCC(=O)Nc1ccc2c(c1)OCO2`, `COc1ccc(CCC(=O)Nc2ccc(C)c([N+](=O)[O-])c2)cc1` is lower in “hERG current change (%, negative = inhibition) at 10uM” value: 8.4% for the first, 1.98% for the second.

First: Cc1ccc(C(=O)N2CCCCCC2)cc1Br
Second: CN1CCN(c2ccc(Cl)cc2NC(=O)c2ccc(S(=O)(=O)N3CCCCCC3)cc2)CC1
The “hERG current change (%, negative = inhibition) at 10uM” value of the first is lower: -17.6% for the first, 5.4% for the second.

Compared with `Cc1ccc(CNC(=O)C2CCC(=O)N(Cc3ccccc3F)C2)s1` (centres unmarked), `C=CCn1c(SC(C)C(=O)NCc2ccc3c(c2)OCO3)nc2scc(-c3ccccc3)c2c1=O` (centres unmarked) is lower in “hERG current change (%, negative = inhibition) at 10uM” value: -15.7% for the first, -31.4% for the second.

Compared with `CN(CCOc1ccc(-c2ccn(S(=O)(=O)c3ccc(Cl)cc3)n2)cc1)c1ccccn1`, `O=C1OC(c2ccc(Cl)cc2)=C/C1=C/c1cccnc1` is higher in “hERG current change (%, negative = inhibition) at 10uM” value: 12.9% for the first, 23.3% for the second.

Going from `Fc1cccc(NC(=S)Nc2ccc(Br)cc2)c1` to `COc1cc(NS(=O)(=O)c2ccc(NC(=S)NC(=O)COc3ccccc3OC)cc2)nc(OC)n1`, the “hERG current change (%, negative = inhibition) at 10uM” value falls from 10.3% to -5.94%.

Going from `CCCN(CC(=O)Nc1ccc(Cl)cc1Cl)Cc1cc(=O)n2ccsc2n1` to `C=CCN1C(=O)c2ccc(C(=O)N(C)CC(=O)Nc3ccccc3Cl)cc2C1=O`, the “hERG current change (%, negative = inhibition) at 10uM” value rises from -37.3% to -25.9%.

First: COc1ccc(NS(=O)(=O)c2c(C)[nH]c(=O)[nH]c2=O)c(OC)c1
Second: CC(=O)c1cccc(NS(=O)(=O)c2cc(OCC(N)=O)c(C)cc2Cl)c1
The “hERG current change (%, negative = inhibition) at 10uM” value of the first is higher: 30.7% for the first, 6.92% for the second.

Going from `COc1ccc([C@H]2/C=C\CN(Cc3ccc(N(C)C)cc3)[C@@H](C)C(=O)N2Cc2ccc(F)cc2)cc1` to `COc1ccc(CC(=O)O/N=C(\N)Cc2ccc(OC)cc2)cc1`, the “hERG current change (%, negative = inhibition) at 10uM” value rises from -10.9% to -0.323%.

Compared with `O=C(N/N=C/c1cc2cc3c(cc2nc1Cl)OCCO3)c1ccccc1O`, `COc1cc(/C=N/NC(=O)c2ccc3nc[nH]c3c2)ccc1O` is lower in “hERG current change (%, negative = inhibition) at 10uM” value: 12% for the first, 4.74% for the second.

Going from `CCn1cc(CN2N=C(C)CC2c2ccccc2)c(C)n1` (centres unmarked) to `Br.O=C(CN1CCSC1=NCc1ccccc1)c1ccc(Cl)cc1`, the “hERG current change (%, negative = inhibition) at 10uM” value falls from -3.09% to -53.9%.

First: Cl.O=C(OCCN1CCOCC1)C(c1ccccc1)c1ccccc1
Second: O=C(Nc1ccc(N2CCN(Cc3ccccc3)CC2)cc1)c1ccco1
The “hERG current change (%, negative = inhibition) at 10uM” value of the first is higher: -3.57% for the first, -8.19% for the second.

Compared with `Cc1c(N(C(=O)CNC(=O)c2ccccc2)C2(C(=O)NC3CCCC3)CCCCC2)c(=O)n(-c2ccccc2)n1C`, `CSCc1ccc(C(=O)NCc2ccc(C)cc2)cc1` is lower in “hERG current change (%, negative = inhibition) at 10uM” value: -4.39% for the first, -8.98% for the second.

First: COc1ccc(C(=O)CC(CC(=O)c2ccc(OC)cc2)C(=O)O)cc1
Second: C/C(=N\Oc1cccc(F)n1)c1ccc(Cl)cc1Cl
The “hERG current change (%, negative = inhibition) at 10uM” value of the first is lower: 15.4% for the first, 15.5% for the second.

First: Nc1nncn1C(=O)c1ccc(Cl)cc1Cl
Second: CCCCCN(C(=O)CCC(=O)OCc1ccc(Cl)cc1Cl)c1c(N)n(CCCC)c(=O)[nH]c1=O
The “hERG current change (%, negative = inhibition) at 10uM” value of the first is higher: 11.7% for the first, -50.1% for the second.
